# In PubChem BioAssay AID488969 (Vanderbilt High Throughput Screening Facility, 2010):
# The full ranking holds about 110,000 compounds; the median of “z-score” is about -0.1, and the highest 2% start at about 2. The list shows a part of the results.
# Target: Metabotropic glutamate receptor 8 (Rattus norvegicus) (UniProt P70579)
# Test: rat mGluR8 modulators via GIRK flux, primary screen, cell-based, thallium flux, HTS (AID 488969)
# Settings: HEK293 rat mGluR8, GIRK (G protein-gated inwardly rectifying potassium channel) thallium flux, FluoZin2; at 10 µM; stronger effect = higher value; submaximal glutamate (EC20) added with thallium
# Chain of UniProt P70579 (P70579 whole entry, looked up): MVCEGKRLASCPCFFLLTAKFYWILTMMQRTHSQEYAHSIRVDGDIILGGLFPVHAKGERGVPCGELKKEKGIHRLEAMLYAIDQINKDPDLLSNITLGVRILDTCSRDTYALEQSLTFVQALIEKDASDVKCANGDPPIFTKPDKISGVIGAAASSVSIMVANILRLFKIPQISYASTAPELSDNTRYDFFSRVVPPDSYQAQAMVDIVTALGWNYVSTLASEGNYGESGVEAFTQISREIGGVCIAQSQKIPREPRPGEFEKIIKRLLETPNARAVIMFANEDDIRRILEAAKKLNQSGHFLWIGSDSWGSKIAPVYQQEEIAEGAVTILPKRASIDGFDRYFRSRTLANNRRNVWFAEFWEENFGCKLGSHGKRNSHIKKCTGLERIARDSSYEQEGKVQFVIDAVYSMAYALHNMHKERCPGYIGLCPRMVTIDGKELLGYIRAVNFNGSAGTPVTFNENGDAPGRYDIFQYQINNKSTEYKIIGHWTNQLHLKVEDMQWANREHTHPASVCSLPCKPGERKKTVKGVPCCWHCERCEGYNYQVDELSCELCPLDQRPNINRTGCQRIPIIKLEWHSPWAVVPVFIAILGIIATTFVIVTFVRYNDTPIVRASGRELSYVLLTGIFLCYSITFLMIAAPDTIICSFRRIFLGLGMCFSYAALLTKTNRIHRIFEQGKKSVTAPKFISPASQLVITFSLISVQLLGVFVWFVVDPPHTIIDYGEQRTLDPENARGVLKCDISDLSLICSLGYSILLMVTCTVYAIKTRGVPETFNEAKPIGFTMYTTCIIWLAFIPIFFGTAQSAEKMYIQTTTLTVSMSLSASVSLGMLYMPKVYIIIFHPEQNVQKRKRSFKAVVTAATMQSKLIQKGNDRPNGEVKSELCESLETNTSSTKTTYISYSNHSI
row,SMILES,z-score
1,Cc1cc(/C=C2/SC(=S)N(c3cccc(C(F)(F)F)c3)C2=O)c(C)n1-c1cccnc1,-0.0303
2,Nc1ccc(NC(=O)c2ccccc2)c2c1C(=O)c1ccccc1C2=O,0.0931
3,O=C(Cn1c(=O)oc2cc(S(=O)(=O)N3CCCCC3)ccc21)N1CCc2ccccc21,0.123
4,Nc1c(C(=O)Nc2nc3ccccc3s2)sc2nc(-c3cccs3)ccc12,0.0764
5,CCCCCn1c(N)c(-c2nc3ccccc3s2)c2c([N+](=O)[O-])nn(CC)c(=O)c21,-0.75
6,Cc1nc(SCC(=O)N2CCN(C(=O)c3ccco3)CC2)c2c(C)c(C)sc2n1,-0.629
7,COc1cc(OC)c2c(C)c(Cl)c(=O)oc2c1,0.803
8,CCOC(=O)c1ccc(Nc2nc(C)cc(=O)[nH]2)cc1,0.244
9,CCN(C(=O)COc1ncnc2scc(-c3ccc(F)cc3)c12)C1CCS(=O)(=O)C1 (stereo not drawn),0.0479
10,COc1ccc(-c2nc3ccccc3c(=O)n2CCN2CCOCC2)cc1,-0.437
11,CCOC(=O)C1CCN(CCC(=O)Nc2ccc(Cl)cc2)CC1,0.215
12,CC1CCCC(N2CCN(C(=O)c3ccc(F)cc3)CC2)C1 (stereo not drawn),-1.76
13,CCOC(=O)c1[nH]c2ccccc2c1NC(=O)c1ccc2c(c1)OCO2,-0.524
14,Fc1ccc(C2CC(c3ccccc3)n3ncnc3N2)cc1 (stereo not drawn),-0.277
15,CCOc1ccccc1NC(=S)NC1CCCCC1,-0.129
16,N#Cc1ccsc1NC(=O)CN1CCCCC1,0.666
17,CCC(=O)Nc1cccc(NC(=O)c2cccc([N+](=O)[O-])c2C)c1,0.682
18,CCOc1ccc2oc(-c3ccccc3)c(C(=O)O)c2c1,-0.436
19,O=c1cc(O)c2c(=O)n(-c3ccccc3)c3ccccc3c2o1,-0.183
20,Cc1c(Cl)cccc1NC(=O)c1cccc(OC(F)F)c1,-0.269
21,Cn1c(=NC(=O)CSCC(=O)N2CCCCC2)sc2ccccc21,0.77
22,CCOC(=O)N1CCN(C(=O)Cc2ccc(C)cc2)CC1,-0.283
23,COc1cccc(NC(=O)C(C)Oc2ccccc2)c1 (stereo not drawn),-0.519

row,SMILES,z-score
1,Cc1nn(-c2ccccc2)c(C)c1NC(=O)COc1ccc(C#N)cc1,-0.133
2,O=C(CNc1cccc2ccccc12)N/N=C/c1cccc(Oc2ccccc2)c1,-0.181
3,COCCNC(=O)CS(=O)(=O)Cc1nc(-c2ccc(C)cc2)oc1C,-0.173
4,Cc1ccc(NC(=S)N2CCOCC2)c(C)c1,0.0311
5,COc1ccc(OC)c(S(=O)(=O)N(C)CC(=O)N2CCN(c3ccc(F)cc3)CC2)c1,-0.0715
6,Cc1nc2ccccc2n1CC(=O)NCCN1CCOCC1,0.331
7,CC(C)Cn1c(N)c(S(=O)(=O)c2cccs2)c2nc3ccccc3nc21,-1.43
8,c1ccc(N2CCN(c3ccccc3)C2c2cccnc2)cc1,-0.375
9,CCOC(=O)c1cc2sc(C)cc2n1CCCN1C(=O)c2ccccc2C1=O,0.136
10,COc1ccc(C(=O)N2N=C(c3cccc(OC)c3)CC2(O)C(F)(F)F)cc1 (stereo not drawn),0.326
11,COc1ccc(NC(=O)CC2C(=O)N(c3ccc(OC)cc3)C(=O)N2CCc2cccs2)cc1 (stereo not drawn),-0.146
12,COc1ccc(/C=N/NC(N)=S)cc1OC(=O)c1ccccc1,-0.441
13,COc1ccc2c(c1)N(C)/C(=C1/SC(=NCc3ccccc3)N(c3ccccc3)C1=O)S2,-0.131
14,O=C(Nc1ccccn1)C(F)(F)C(F)(F)C(F)(F)C(F)(F)C(=O)Nc1ccccn1,0.103
15,Cc1cc(C(=O)NCc2cc(C)n(C)n2)sc1-c1ccccc1,-0.62
16,O=C(NC(=S)Nc1ccccn1)c1cncc(Br)c1,0.829
17,O=C(c1ccccc1)c1cccc(NC(=O)c2ccc(Br)o2)c1,-0.711
18,O=C(NCCc1cccs1)C1CC(c2cccc([N+](=O)[O-])c2)=NO1 (stereo not drawn),-0.00027
19,COc1ccc(-c2cc(-c3n[nH]c(=S)n3-c3ccccc3OC)[nH]n2)cc1,-0.592
20,CCOc1ccc(N/C=C\C(=O)c2ccc3c(c2)OCO3)cc1,-0.114
21,CC(C)CNC(=S)Nc1ccccc1F,-0.197
22,CCS(=O)(=O)N1CCC(C(=O)NCc2cccnc2)CC1,0.0787
23,O=C(Cn1c(=O)oc2cc(S(=O)(=O)N3CCCCC3)ccc21)N1CCc2ccccc2C1,0.0243

row,SMILES,z-score
1,COc1ccc(/C=C/C(=O)c2ccc3c(c2)OCCO3)cc1[N+](=O)[O-],0.373
2,O=C(NC12CC3CC(CC(C3)C1)C2)C12CC3CC(C1)CC(n1cnc(Cl)n1)(C3)C2,0.0163
3,COc1ccc(NC(=O)c2cc3c(-c4ccc(OC)c(OC)c4)nn(C)c3s2)cc1OC,-0.137
4,CC1CCCN(C(=O)CSCC(=O)N=c2sc3ccccc3n2C)C1 (stereo not drawn),-0.635
5,C=CCn1c(CCNC(=O)c2ccc(Cl)c(Cl)c2)nnc1SCCOc1ccc(OC)cc1,-0.286
6,COc1cc(OC)cc(C(=O)NC(C(=O)NCCN(C)C)C23CC4CC(CC(C4)C2)C3)c1 (stereo not drawn),0.208
7,CN(C)c1ccc(/C=C2\CCC/C(=C\c3ccccc3)C2=O)cc1,-0.296
8,CC1=C(C(=O)OCC(C)C)C23C(=O)c4ccccc4C2(O1)OC(N)=C3C#N (stereo not drawn),-1.58
9,CCCOc1ccccc1C1CC(=O)Nc2cc3c(cc21)OCO3 (stereo not drawn),-0.289
10,Cn1c2ccccc2c(=O)c2c(=O)n(C3CCCCC3)c(-c3ccco3)nc21,-0.509
11,O=C(c1cnccn1)N1CCN(c2ccccc2F)CC1,-0.267
12,C/C(=N\N=C1/NC(=O)C(C)S1)c1ccc([N+](=O)[O-])cc1 (stereo not drawn),-0.238
13,NC(=O)COC(=O)c1cc(S(=O)(=O)N2CCOCC2)ccc1N1CCCCC1,-0.0501
14,CC(=O)c1ccc(N2CCN(C(=O)CCCn3c(=S)[nH]c4cc5c(cc4c3=O)OCO5)CC2)cc1,2.56
15,CCc1c(C)sc(NC(=O)c2ccco2)c1C(=O)N1CCOCC1,1.29
16,COc1ccc(S(=O)(=O)Nc2ccc(Cl)cn2)c(C)c1C,-0.798
17,Cc1csc(NC(=O)c2cc3c(s2)CCCC3)n1,-0.76
18,CC(=O)N1C(C)c2ccccc2C(C)(C)CC12CCCCC2 (stereo not drawn),-0.408
19,CCOC(=O)N1CCC(NC(=O)CS(=O)(=O)Cc2nc(-c3ccc(C)cc3)oc2C)CC1,-0.301
20,CCOC(=O)N1CCN(C(=O)c2ccc(-n3c(=S)[nH]c4ccccc4c3=O)cc2)CC1,-0.193
21,Cc1cc(C)c(C)c(S(=O)(=O)NCc2ccco2)c1C,0.675
22,CCOc1ccc(/C=N/OCC(=O)NCc2ccc3c(c2)OCO3)cc1OC,0.208
